The test system of this data set is PTC-DTR mice. Particulars: mouse, in vivo.

For the compound `COC(=O)CCCSc1ccccc1` [UPHD-00025, methyl 4-(phenylsulfanyl)butanoate (m4PTB)], the “increase in the rate of renal recovery” value was “approximately 30%”, the “reduction in peak BUN” value is given as 30% and the signs of toxicity result is “no overt signs of toxicity”.
